Reference: a collection of fitness landscapes (doi:10.1016/j.celrep.2020.107928)
Whole data set: some 81,000 sequences, median “one-hybrid fitness for binding parS DNA” near -0.17, cut for the highest 2% near 0.51. The list shows a part of the results.

B1: Caulobacter ParB omega fusion; a variant is named by its letters at X, in order, B8GW30 (parent)
chain: MESVVVGEPGMSEGRRGLGRGLSALLGEVDAAPAQAPGEQLGGSREAPIEILQRNPDQPRRTFREEDLEDLSNSIREKGVLQPILVRPSPDTAGEYQIVAGERAWRAAQRAGLKTVPIMVRELDDLAVLEIGIIENVQRADLNVLEEALSYKVLMEKFERTQENIAQTIGKSXSHVANXMRLLXLPDEVQSYLVSGELTAXHARAIAAAADPVALAKQIIEGGLSVRETEALARKAPNLSAGKSKGGRPPRVKDTDTQALESDLSSVLGLDVSIDHRGSTGTLTITYATLEQLDDLCNRLTRGI

Variants of: B1
Assay: one-hybrid fitness for binding parS DNA (scaled: cognate 1, non-cognate 0); higher = stronger binding
Details: with parS DNA site
How it was run: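 Values were rescaled so that cognate is 1 and non-cognate is 0. Each is a fitness, the log change in a variant's read ratio to wild type from Illumina reads of plasmids before and after selection, with three replicate libraries pooled and variants under 10 reads dropped. Selection of the Caulobacter ParB libraries, four specificity codons randomised, used E. coli USO with a HIS3 reporter, site 19 bp from the promoter, on M9-minus-histidine with 0.1 mM IPTG and 5 mM 3-AT for 48 hours at 37°C.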

Row | Variant | one-hybrid fitness for binding parS DNA
1 | WAQL | ≤ 0.2
2 | PYAM | ≤ 0.2
3 | DVIC | ≤ 0.2
4 | FRHM | ≤ 0.2
5 | KLMS | ≤ 0.2
6 | FEHS | ≤ 0.2
7 | SFKR | ≤ 0.2
8 | QCCG | ≤ 0.2
9 | PKKY | ≤ 0.2
10 | RIPR | ≤ 0.2
11 | ACWN | ≤ 0.2
12 | WWTS | ≤ 0.2
13 | AHRI | ≤ 0.2
14 | ILPI | ≤ 0.2
15 | QFLI | ≤ 0.2
16 | TPVA | ≤ 0.2
17 | HMKW | ≤ 0.2
18 | TGHR | ≤ 0.2
19 | EQDG | ≤ 0.2
20 | FRKG | ≤ 0.2
21 | EFHA | ≤ 0.2
22 | QNMG | ≤ 0.2
23 | KDLK | ≤ 0.2
24 | MNGT | ≤ 0.2
25 | SVTY | ≤ 0.2
26 | VIFV | ≤ 0.2

Row | Variant | one-hybrid fitness for binding parS DNA
27 | IKKF | ≤ 0.2
28 | DKEY | ≤ 0.2
29 | VHYK | ≤ 0.2
30 | NGHT | ≤ 0.2
31 | NPFR | ≤ 0.2
32 | TFWG | ≤ 0.2
33 | KCWY | ≤ 0.2
34 | ILPD | ≤ 0.2
35 | LVAH | ≤ 0.2
36 | KMEW | ≤ 0.2
37 | VQAA | ≤ 0.2
38 | EARS | ≤ 0.2
39 | ELFT | ≤ 0.2
40 | EVKS | ≤ 0.2
41 | GVTN | ≤ 0.2
42 | SPVQ | ≤ 0.2
43 | EGMI | ≤ 0.2
44 | RCAN | 0.477
45 | YRKE | ≤ 0.2
46 | LSER | ≤ 0.2
47 | NPRN | ≤ 0.2
48 | FVSG | ≤ 0.2
49 | THVG | ≤ 0.2
50 | YHTG | ≤ 0.2
51 | RHVI | ≤ 0.2
52 | QRQP | ≤ 0.2

Row | Variant | one-hybrid fitness for binding parS DNA
53 | QVTR | ≤ 0.2
54 | GCRQ | ≤ 0.2
55 | TNFH | ≤ 0.2
56 | CAWW | ≤ 0.2
57 | GGAR | ≤ 0.2
58 | QKTT | ≤ 0.2
59 | DDKV | ≤ 0.2
60 | KHLV | ≤ 0.2
61 | ILRK | ≤ 0.2
62 | KLSL | ≤ 0.2
63 | DNLD | ≤ 0.2
64 | QHVF | ≤ 0.2
65 | DYAQ | ≤ 0.2
66 | WKLV | ≤ 0.2
67 | VLIL | ≤ 0.2
68 | RPDQ | ≤ 0.2
69 | VQYW | ≤ 0.2
70 | MCHR | ≤ 0.2
71 | PPPF | ≤ 0.2
72 | GAET | ≤ 0.2
73 | NAAA | ≤ 0.2
74 | YAPC | ≤ 0.2
75 | QQVW | ≤ 0.2
76 | RWSQ | ≤ 0.2
77 | HHFI | ≤ 0.2
78 | PPYK | ≤ 0.2

Row | Variant | one-hybrid fitness for binding parS DNA
79 | HHPC | ≤ 0.2
80 | RQYV | ≤ 0.2
81 | PFYC | ≤ 0.2
82 | QHRF | ≤ 0.2
83 | LSGG | ≤ 0.2
84 | HRHF | ≤ 0.2
85 | GELG | ≤ 0.2
86 | KQAR | 0.233
87 | PGSM | ≤ 0.2
88 | CDES | ≤ 0.2
89 | DVDR | ≤ 0.2
90 | VIAT | ≤ 0.2
91 | PAQY | ≤ 0.2
92 | TRHV | ≤ 0.2
93 | VGDR | ≤ 0.2
94 | AWSG | ≤ 0.2
95 | WTFS | ≤ 0.2
96 | GSPE | ≤ 0.2
97 | DSSK | ≤ 0.2
98 | YEHC | ≤ 0.2
99 | HRSA | ≤ 0.2
100 | TYKA | ≤ 0.2
101 | PHHL | ≤ 0.2
102 | MQMG | ≤ 0.2
103 | LKHR | ≤ 0.2
104 | ALSF | ≤ 0.2

Row | Variant | one-hybrid fitness for binding parS DNA
105 | CMLN | ≤ 0.2
106 | SGRK | ≤ 0.2
107 | CTQN | ≤ 0.2
108 | TLGE | ≤ 0.2
109 | KVTK | ≤ 0.2
110 | QNWF | ≤ 0.2
111 | VQAE | ≤ 0.2
112 | MYAS | ≤ 0.2
113 | RMWP | ≤ 0.2
114 | KRRG | ≤ 0.2
115 | VADG | ≤ 0.2
116 | GTCA | ≤ 0.2
117 | QCQA | ≤ 0.2
118 | TAQM | ≤ 0.2
119 | RFRE | ≤ 0.2
120 | MTWW | ≤ 0.2
121 | QTQP | ≤ 0.2
122 | EDNT | ≤ 0.2
123 | ATND | ≤ 0.2
124 | YNTG | ≤ 0.2
125 | NARY | ≤ 0.2
126 | QWPH | ≤ 0.2
127 | THPG | ≤ 0.2
128 | CSML | ≤ 0.2
129 | SDCW | ≤ 0.2
130 | TMSI | ≤ 0.2

Row | Variant | one-hybrid fitness for binding parS DNA
131 | RYTI | ≤ 0.2
132 | SWIC | ≤ 0.2
133 | WMVT | ≤ 0.2
134 | SMMH | ≤ 0.2
135 | PKAN | ≤ 0.2
136 | RATA | 0.586
137 | TDDV | ≤ 0.2
138 | LKTG | ≤ 0.2
139 | TPLV | ≤ 0.2
140 | RPLL | ≤ 0.2
141 | RVAK | ≤ 0.2
142 | HMQT | ≤ 0.2
143 | DPDT | ≤ 0.2
144 | NQGL | ≤ 0.2
145 | FRCR | ≤ 0.2
146 | LPNG | ≤ 0.2
147 | GHAG | ≤ 0.2
148 | ICRY | ≤ 0.2
149 | IIVR | ≤ 0.2
150 | DNSR | ≤ 0.2
151 | RQKQ | ≤ 0.2
152 | IYPR | ≤ 0.2
153 | HMEF | ≤ 0.2
